Results as given in PubChem BioAssay AID463173 (ICCB-Longwood Screening Facility, Harvard Medical School, 2010).
About 4,300 (8.3%) of roughly 52,000 compounds were called active. Cut-off read from the data, not from the text of the source: active = survival mostly below about 52% (no sharp cut-off); inactive = mostly above about 56%. Some of the results follow.

tested on: DeltatarO mutant; assay: S. aureus survival, RN4220 and DeltatarO strains – OD600, teichoic acid synthesis inhibitors, primary screen (AID 463173); settings: S. aureus RN4220 wild type/DeltatarO growth, OD600, 18 h, stronger effect = lower value, screened at 18.75 µg/mL (by protocol)

Row | Structure (SMILES) | survival
1 | CCN1CCN(C(=S)Nc2ccccc2)CC1 | inactive: 72%
2 | CCOCCCNC(=O)C(c1ccc(C)cc1)N(Cc1ccc2c(c1)OCO2)C(=O)c1ccccc1O (centres undefined) | inactive: 55%
3 | Cc1cc(C)c(NC(=O)CSc2nc(=O)n(Cc3ccncc3)c3c2CCC3)c(C)c1 | inactive: 78%
4 | COc1cccc(C2=CC(c3ccccc3F)n3ncc(C(=O)Nc4ccc(F)cc4)c3N2)c1 (centres undefined) | inactive: 72%
5 | Cc1ccc(Nc2c(-c3cccnc3)nc3ccc(C)cn23)cc1 | inactive: 95%
6 | Cc1nn(C2CC(=O)N(c3ccc(Cl)cc3)C2=O)c(C)c1C (centres undefined) | inactive: 89%
7 | CCOCCCNC(=O)C1CCN(c2nc3ccc(C)cc3[nH]2)CC1 | inactive: 101%
8 | COC(=O)c1cc(-c2ccc(Cl)cc2)c2c(=O)[nH]c(=O)n(C)c2n1 | inactive: 92%
9 | COc1ccc(NC(=O)CCc2c(C)nn(-c3ccc(N4CCCC4)nn3)c2C)cc1Cl | inactive: 101%
10 | Cc1ccc(Cn2c(=O)n(CCc3ccccc3)c(=O)c3sc4ccccc4c32)cc1 | inactive: 74%
11 | COc1ccc(N2CCN(C(=O)Cn3cnc4sc(C)c(S(=O)(=O)N5CCCCC5)c4c3=O)CC2)cc1 | inactive: 73%
12 | Cc1ccc(NC(=O)CCn2cccn2)c(C)c1 | inactive: 79%
13 | O=C(CSc1nc2c([nH]c3ccccc32)c(=O)n1-c1ccccc1)Nc1cccc(C(F)(F)F)c1 | active: -4%
14 | CCc1ccc(CNC(=O)c2ccc3c(c2)c(C)c(C)n3Cc2ccccc2)cc1 | inactive: 83%
15 | O=C(NC1CCCCC1)c1ccc(CSc2nc3ccncc3n2Cc2cccc(F)c2)cc1 | inactive: 95%
16 | Cc1ccc(N(C)C(=O)Cn2ncc3c([nH]c4ccccc43)c2=O)cc1C | active: 37%
17 | O=C(/C=C/c1ccco1)Nc1ccc(-c2nc3ccccc3[nH]2)cc1 | inactive: 74%
18 | COc1ccc(CNCC#N)cc1OC | inactive: 77%
19 | CS(=O)(=O)N1CCN(C(=O)c2ccccc2)CC1 | inactive: 76%
20 | CCOC(=O)N1CCc2c(sc(NCc3cc(OC)ccc3OC)c2C(=O)Nc2cc(OC)ccc2OC)C1 | inactive: 90%
21 | O=C(CC1SCC(C(=O)O)NC1=O)NCc1ccccc1 (centres undefined) | inactive: 66%
22 | O=C(c1ccccc1)N1CCC(c2nc3c(nnn3Cc3ccccc3)c(=O)[nH]2)CC1 | active: 13%
23 | CCS(=O)(=O)c1ccc(C(=O)N2CCN(c3nc4c(OC)ccc(C)c4s3)CC2)cc1 | inactive: 84%

Row | Structure (SMILES) | survival
24 | Cc1ccc(-c2nnc(SC(C)C)n2-c2ccccc2)cc1 | inactive: 100%
25 | O=C(CSc1cn(CCNC(=O)c2ccccc2F)c2ccccc12)Nc1ccc2c(c1)OCCO2 | inactive: 75%
26 | COc1cccc(C(C(=O)NCC2CCCO2)N(CC2CCCO2)C(=O)CC2C(=O)c3ccccc3S2(=O)=O)c1 (centres undefined) | inactive: 90%
27 | COCCn1c(C)cc(O)c(C(c2ccccc2)N2CCN(c3ccccc3F)CC2)c1=O (centres undefined) | inactive: 112%
28 | O=c1[nH]c2cc3c(cc2cc1CNCc1ccc2c(c1)OCO2)OCCO3 | inactive: 89%
29 | CC(C)c1ccc(NC(=O)c2cn(C3CCCC3)c(=O)c3c2c2ccccc2n3C)cc1 | inactive: 70%
30 | CCCOc1ccc(NC(=O)CC2C(=O)N(c3cccc(OC)c3)C(=O)N2CCc2ccncc2)cc1 (centres undefined) | inactive: 69%
31 | CCOc1ccc(-c2csc3ncn(CC(N)=O)c(=O)c23)cc1 | inactive: 82%
32 | COc1ccccc1-c1nc(CNC(=O)NC2CCCCC2)c(C)o1 | inactive: 94%
33 | O=C(Cn1ncc2ccsc2c1=O)N1CCN(c2ccc(Cl)cc2)CC1 | inactive: 78%
34 | Cc1ccc(NC(=O)CCn2nc(C)c3c(C)n(-c4ccccc4)nc3c2=O)cc1Cl | inactive: 117%
35 | CC1CCCCN1Cc1nc2c(c(=O)n(C)c(=O)n2C)n1Cc1ccc(Br)cc1 (centres undefined) | inactive: 97%
36 | CON(C)c1nc(OCCNC(=O)OCc2ccc(Cl)cc2Cl)nc(N(C)C)n1 | inactive: 76%
37 | Cc1ccc2c(Sc3ccc(Cl)cc3)c(C(=O)N3CCCCC3)[nH]c2c1 | inactive: 85%
38 | COc1ccc(NC(=O)c2c(-c3ccc(C)cc3)nnc3ccccc23)cc1OC | inactive: 67%
39 | O=C(c1cnccn1)N(Cc1ccc(Cl)cc1)Cc1cc2cc3c(cc2[nH]c1=O)OCCO3 | inactive: 98%
40 | CCN(CC)c1ccc(NC(=O)COCc2cc(-c3ccc4c(c3)OCO4)on2)c(C)c1 | inactive: 91%
41 | C/C(=N\N=C1/NC(=O)C(CC(=O)O)S1)c1ccc(C)o1 (centres undefined) | inactive: 101%
42 | Cc1ccccc1Cn1c2ccccc2c2cnn(CC(=O)NCc3cccc(Cl)c3)c(=O)c21 | inactive: 75%
43 | CCOC(=O)c1ccc(CN(Cc2ccc(F)cc2)S(=O)(=O)c2ccc(F)c(C(=O)Nc3cc(Cl)ccc3OC)c2)cc1 | inactive: 79%
44 | Cc1ccc(N2CCN(C(=O)c3c(C)oc4ncn(C)c(=O)c34)CC2)c(C)c1 | inactive: 83%
45 | CCOC(=O)CCc1nn(C)c(=O)c2ccccc12 | inactive: 109%
46 | Cc1ccc(NC(=O)CSc2nc3c(oc4ccccc43)c(=O)n2Cc2ccco2)cc1F | inactive: 74%

Row | Structure (SMILES) | survival
47 | CC(N=Cc1cccc(O)c1O)c1ccccc1 (centres undefined) | inactive: 120%
48 | Cc1nc(-n2nc(C)c(Cc3ccc(Cl)cc3)c2C)sc1C(=O)N1CCC(C)CC1 | inactive: 67%
49 | CCCCC(=O)N1c2ccccc2C(C)(c2ccccc2)CC1(C)C (centres undefined) | active: -3%
50 | Cc1cccc(CNC(=O)c2cnc3c(-c4cccc(C)c4)c(C)nn3c2C)c1 | active: 17%
51 | O=C(OCC(=O)c1cccs1)c1cccc(C(=O)OCC(=O)c2cccs2)n1 | inactive: 89%
52 | COC(=O)c1ccccc1NC(=S)N(Cc1ccco1)Cc1cc2cc(C)ccc2[nH]c1=O | inactive: 94%
53 | Cn1c(=O)c2cc(S(=O)(=O)NC(Cc3ccccc3)C(=O)Nc3ccc(F)cc3)ccc2n(C)c1=O (centres undefined) | inactive: 69%
54 | CC(=O)N1CCCc2cc(S(=O)(=O)N(C)CC(=O)Nc3cccc(Cl)c3C)ccc21 | inactive: 89%
55 | CCc1ccc(S(=O)(=O)NCCc2cn3ccsc3n2)cc1 | inactive: 72%
56 | O=C(c1ccccc1Cl)n1nc(-c2ccco2)nc1NCc1cccs1 | inactive: 54%
57 | CC(C)OC(=O)c1c(NC(=O)c2cccc(C(F)(F)F)c2)sc2c1CCCC2 | inactive: 87%
58 | O=C1CC(c2ccccc2)Sc2ccccc2N1Cc1ccccc1F (centres undefined) | inactive: 96%
59 | COc1ccc(NC(=O)Cn2ccn(-c3ccc(F)c(F)c3)c(=O)c2=O)cc1Cl | inactive: 68%
60 | COc1cccc(CNC(=O)c2sc3nc[nH]c(=O)c3c2C)c1 | inactive: 67%
61 | COc1ccc(CNC(=O)CCC2N=C3c4ccccc4N=C(SCC(=O)NCCc4ccc(OC)c(OC)c4)N3C2=O)cc1 (centres undefined) | inactive: 69%
62 | O=C1Nc2nc(=O)nc3[nH]c(=O)nc(n23)N1 | inactive: 97%
63 | CC(=O)N1CCCc2cc(S(=O)(=O)N(C)CC(=O)Nc3ccc(C(C)C)cc3)ccc21 | inactive: 94%
64 | COc1ccc(CNC(=O)c2cc3c(=O)n(Cc4ccco4)ccc3nc2C)c(OC)c1 | inactive: 67%
65 | CC(C)c1ccc(OCC(=O)Nc2ccc(S(=O)(=O)Nc3ncccn3)cc2)cc1 | inactive: 75%
66 | Cn1cc(-c2cc3n(n2)CCC(=O)N3CCCC(=O)Nc2ccc(Cl)cc2)c2ccccc21 | inactive: 73%
67 | CC1=NN(c2ccc(S(N)(=O)=O)cc2)C(=O)C1 | inactive: 75%
68 | COC(=O)c1ccccc1NS(=O)(=O)c1cc2c3c(c1)CC(=O)N3CCC2 | active: 46%
69 | O=C(Cn1c(=O)sc2ccccc21)Nc1ccc(O)cc1 | inactive: 70%

Row | Structure (SMILES) | survival
70 | CCN(CC)S(=O)(=O)c1ccc2c(c1)N(CC(=O)Nc1ccc(Cl)cc1)C(=O)C1CCCN21 (centres undefined) | inactive: 84%
71 | COc1ccc(C)c2sc(NC(=O)c3ccc(S(=O)(=O)N4CCOCC4)cc3)nc12 | inactive: 70%
72 | COc1ccccc1CNC(=O)C(=O)NCC(c1ccco1)S(=O)(=O)c1ccc(F)cc1 (centres undefined) | inactive: 94%
73 | Cc1c(C(C)(C)C)sc(=N)n1C | inactive: 99%
74 | COc1cccc(N2CCN(C(=O)c3cnc4c(-c5ccc(F)cc5)c(C)nn4c3C)CC2)c1 | active: -5%
75 | COc1ccc(C(=O)Oc2c(Sc3ccccc3)c(C)nn2-c2ccccc2)c(OC)c1 | inactive: 114%
76 | Cc1cccc(C)c1OCCn1c(CCNC(=O)C2CCCCC2)nc2ccccc21 | inactive: 57%
77 | C=CCn1c(=O)c(C2=NS(=O)(=O)c3ccccc3N2)c(O)c2ccccc21 | inactive: 77%
78 | CCOc1ccc(NC(=O)c2cc(-c3ccc(C)c(F)c3)on2)c([N+](=O)[O-])c1 | inactive: 52%
79 | Cc1ccc(-c2noc(C3CCCN(C(=O)c4ccccc4)C3)n2)o1 (centres undefined) | inactive: 85%
80 | O=c1oc2cc(Br)ccc2n1CO | inactive: 105%
81 | CCCCN1C(=O)C(O)(CC(=O)c2ccc(CC)cc2)c2cc(Br)ccc21 (centres undefined) | active: 32%
82 | CCCN(C(=O)c1cc2c(=O)oc3ccc(C)cc3c2s1)c1ccc(OCC)cc1 | inactive: 48%
83 | CCSc1nc(-c2cccc(Cl)c2)nc2c1Cc1c(CO)cnc(C)c1O2 | inactive: 116%
84 | COc1cccc(CNC(=O)Cn2nc(C)n3c(cc4cc(C)ccc43)c2=O)c1OC | inactive: 105%
85 | COc1ccc(-c2nc3ccccc3n2Cc2ccccc2)cc1 | active: -1%
86 | Cc1c(Cl)ccc2sc(N3CCN(C(=O)CCS(=O)(=O)c4ccc(F)cc4)CC3)nc12 | active: 0%
87 | COc1cccc(C(=O)Nc2nc(-c3nnn(-c4ccccc4C(F)(F)F)c3C)ns2)c1 | inactive: 87%
88 | CCOc1ccc2nc(N(Cc3cccnc3)C(=O)c3cccs3)sc2c1 | inactive: 83%
89 | COc1cccc(-c2nc(Cn3c(=O)cc(C)c4c(C)nn(-c5ccccc5)c43)c(C)o2)c1OC | inactive: 68%
